Measured values taken from article PMC9644274.
These are yes or no findings as the source states them, for the method shown. For part of these data: In cells and extracts the contact can be indirect. Where a sequence is shown, tags or fusion partners need not be part of it. Some entries that bind do so weakly or less than the wild type. Values belong to the binder of their own block, whether it stands above or below them.

Experiments:
[1] = biological target: RTN3 (reticulon 3), split-ubiquitin fusion in yeast (Arabidopsis thaliana) (UniProt Q9SH59); assay: two-hybrid; yeast mating-based split-ubiquitin system (mbSUS); Nub and Cub fusions; colony growth indicates an interaction
[2] = biological target: T1, RTN6 (reticulon 6), split-ubiquitin fusion in yeast (Arabidopsis thaliana), Q6DBN4; assay: as above; conditions: remark: other sources report otherwise
T1 chain: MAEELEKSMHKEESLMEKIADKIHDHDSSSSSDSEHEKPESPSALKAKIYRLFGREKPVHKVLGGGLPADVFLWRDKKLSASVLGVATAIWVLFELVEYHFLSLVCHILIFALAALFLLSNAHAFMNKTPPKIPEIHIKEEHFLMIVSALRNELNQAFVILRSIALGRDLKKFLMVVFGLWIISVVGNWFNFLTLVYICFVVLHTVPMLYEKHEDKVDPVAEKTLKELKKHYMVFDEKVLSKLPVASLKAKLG

[3] = biological target: T2, RTN3 (reticulon 3), split-ubiquitin fusion in yeast (Arabidopsis thaliana), Q9SH59; assay: as above; conditions: remark: other sources report otherwise
T2 chain: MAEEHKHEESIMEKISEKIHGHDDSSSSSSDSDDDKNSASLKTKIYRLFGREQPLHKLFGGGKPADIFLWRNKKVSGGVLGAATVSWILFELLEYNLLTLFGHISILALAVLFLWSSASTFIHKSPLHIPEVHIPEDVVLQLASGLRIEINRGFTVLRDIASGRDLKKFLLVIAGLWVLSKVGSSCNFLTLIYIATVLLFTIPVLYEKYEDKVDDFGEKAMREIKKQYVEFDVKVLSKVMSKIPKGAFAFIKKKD

[4] = biological target: T3, GFP-RTN6 (Arabidopsis thaliana) (UniProt Q6DBN4); assay: FRET or BRET; FRET-FLIM in tobacco leaf epidermal cells, transient expression; GFP fusion as donor, mRFP fusion as acceptor; a reduction of the donor's lifetime of 0.2 ns or more is taken as energy transfer
T3 sequence: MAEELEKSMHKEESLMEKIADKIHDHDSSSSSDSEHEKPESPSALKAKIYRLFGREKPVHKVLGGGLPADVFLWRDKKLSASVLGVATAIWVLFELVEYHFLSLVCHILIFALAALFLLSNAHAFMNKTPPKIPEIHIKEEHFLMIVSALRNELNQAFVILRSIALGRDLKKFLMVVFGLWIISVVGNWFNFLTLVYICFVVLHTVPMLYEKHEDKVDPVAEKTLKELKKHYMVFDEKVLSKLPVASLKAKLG

[5] = biological target: T4, GFP-RTN3 (Arabidopsis thaliana) (UniProt Q9SH59); assay: as above
T4 sequence: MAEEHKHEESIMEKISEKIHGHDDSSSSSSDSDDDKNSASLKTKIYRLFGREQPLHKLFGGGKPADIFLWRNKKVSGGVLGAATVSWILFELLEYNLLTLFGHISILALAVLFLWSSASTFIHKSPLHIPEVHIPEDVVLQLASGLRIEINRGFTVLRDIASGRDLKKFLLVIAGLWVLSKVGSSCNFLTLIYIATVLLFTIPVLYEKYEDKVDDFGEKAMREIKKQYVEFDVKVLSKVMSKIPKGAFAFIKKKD

binding [1]: binds
B1: RTN3 (reticulon 3), split-ubiquitin fusion in yeast (protein, UniProt Q9SH59 1-255)
chain: MAEEHKHEESIMEKISEKIHGHDDSSSSSSDSDDDKNSASLKTKIYRLFGREQPLHKLFGGGKPADIFLWRNKKVSGGVLGAATVSWILFELLEYNLLTLFGHISILALAVLFLWSSASTFIHKSPLHIPEVHIPEDVVLQLASGLRIEINRGFTVLRDIASGRDLKKFLLVIAGLWVLSKVGSSCNFLTLIYIATVLLFTIPVLYEKYEDKVDDFGEKAMREIKKQYVEFDVKVLSKVMSKIPKGAFAFIKKKD

binding [2]: binds
B2: RTN3 (reticulon 3), split-ubiquitin fusion in yeast, Q9SH59 1-255 (protein)
chain: MAEEHKHEESIMEKISEKIHGHDDSSSSSSDSDDDKNSASLKTKIYRLFGREQPLHKLFGGGKPADIFLWRNKKVSGGVLGAATVSWILFELLEYNLLTLFGHISILALAVLFLWSSASTFIHKSPLHIPEVHIPEDVVLQLASGLRIEINRGFTVLRDIASGRDLKKFLLVIAGLWVLSKVGSSCNFLTLIYIATVLLFTIPVLYEKYEDKVDDFGEKAMREIKKQYVEFDVKVLSKVMSKIPKGAFAFIKKKD

binding [2]: binds | binding [3]: binds
B3: RTN6 (reticulon 6), split-ubiquitin fusion in yeast, Q6DBN4 1-253 (protein)
chain: MAEELEKSMHKEESLMEKIADKIHDHDSSSSSDSEHEKPESPSALKAKIYRLFGREKPVHKVLGGGLPADVFLWRDKKLSASVLGVATAIWVLFELVEYHFLSLVCHILIFALAALFLLSNAHAFMNKTPPKIPEIHIKEEHFLMIVSALRNELNQAFVILRSIALGRDLKKFLMVVFGLWIISVVGNWFNFLTLVYICFVVLHTVPMLYEKHEDKVDPVAEKTLKELKKHYMVFDEKVLSKLPVASLKAKLG

binding [4]: no binding | binding [5]: no binding
B4: mRFP-ANNAT4 (Annexin 4) (protein, UniProt Q9ZVJ6 1-319)
chain: MALPLELESLTEAISAGMGMGVDENALISTLGKSQKEHRKLFRKASKSFFVEDEERAFEKCHDHFVRHLKLEFSRFNTAVVMWAMHPWERDARLVKKALKKGEEAYNLIVEVSCTRSAEDLLGARKAYHSLFDQSMEEDIASHVHGPQRKLLVGLVSAYRYEGNKVKDDSAKSDAKILAEAVASSGEEAVEKDEVVRILTTRSKLHLQHLYKHFNEIKGSDLLGGVSKSSLLNEALICLLKPALYFSKILDASLNKDADKTTKKWLTRVFVTRADHSDEMNEIKEEYNNLYGETLAQRIQEKIKGNYRDFLLTLLSKSD
